From PubChem BioAssay (NCATS)
Values joined by “and” are separate entries in the source; they are usually repeats but may differ in a detail not shown here. Equal values may be shown once. Inconclusive results, whose numbers are uncertain, are shown with a selection of clear calls. Potencies of inconclusive entries are doubtful fits and often do not repeat. Active and inactive are the calls of the source. The call rests on the fitted dose curve; in most records, active means well fitted inhibition curve with a large enough effect; inconclusive means small, poorly fitted or top-dose-only effect; inactive means flat fitted curve, though single readings scatter.

Experiment: Primary qHTS for inhibitors of nuclear receptor binding SET domain protein 2 (NSD2) in an isogenic RCH-ACV NSD2 p.E1099K mutant (9B) (AID 1645876); further: nearly all actives have a fitted effect of over 70% in size
Conditions: RCH-ACV (leukaemia line) NSD2 E1099K (9B) viability, CellTiter-Glo, 72 h; series mostly up to 44.9 µM
Potency means the concentration at half of the fitted maximal effect; tags describe the fitted curve by direction and shape.

| Structure (SMILES) | Potency |
| --- | --- |
| COc1cc(C(C)=O)ccc1OCCCN1CCC(c2noc3cc(F)ccc23)CC1 | inconclusive: 21.1 µM [inhibitor, partial curve] |
| O=C(N[C@H](CO)[C@H](O)c1ccc([N+](=O)[O-])cc1)C(Cl)Cl | inconclusive: 13.7 µM [inhibitor, partial curve, poor fit] |
| Cc1ccc(C(=O)c2cc(O)c(O)c([N+](=O)[O-])c2)cc1 | inconclusive: 33.5 µM [inhibitor, single point] and inconclusive: 33.2 µM [inhibitor, single point] |
| CCC(C)n1ncn(-c2ccc(N3CCN(c4ccc(OC[C@H]5CO[C@](Cn6cncn6)(c6ccc(Cl)cc6Cl)O5)cc4)CC3)cc2)c1=O (stereo not given in full) | inconclusive: 29.9 µM [inhibitor, single point] |
| COc1ccc(-c2nc3ccc(C4=NNC(=O)CC4C)cc3[nH]2)cc1 (stereo not given) | active: 9.44 µM and active: 14.8 µM |
| CC(C)C[C@H](NC(=O)[C@H](CCc1ccccc1)NC(=O)CN1CCOCC1)C(=O)N[C@@H](Cc1ccccc1)C(=O)N[C@@H](CC(C)C)C(=O)[C@@]1(C)CO1 | active: 7.5 nM and active: 10.5 nM |
| Cc1cc(C2CCCCC2)n(O)c(=O)c1 | active: 5.8 µM and active: 266 nM and active: 7.42 µM |
| Cc1nc(Nc2ncc(C(=O)Nc3c(C)cccc3Cl)s2)cc(N2CCN(CCO)CC2)n1 | inconclusive: 0.058 µM [inhibitor, full curve, poor fit] |
| COC[C@@H](c1ccc(C(F)(F)F)cc1)N1CCN(C2(C)CCN(C(=O)c3c(C)ncnc3C)CC2)C[C@H]1C | inconclusive: 29.9 µM [inhibitor, single point] |
| C=CCc1cc(OC)c(O)c(C(=O)NCCO)c1 | inconclusive: 33.5 µM [inhibitor, single point] |
| CC(C)OC(=O)C(C(=O)OC(C)C)=C1SC=CS1 | inconclusive: 21.1 µM [inhibitor, single point] |
| O=c1cc(-c2cccc3c2Sc2ccccc2S3)oc(N2CCOCC2)c1 | active: 11.6 µM and active: 14.8 µM |
| CN1CCN(CCCN2c3ccccc3Sc3ccc(Cl)cc32)CC1 | inconclusive: 29.9 µM [inhibitor, single point] |
| O=C1c2c(O)cc(O)cc2OC(c2ccc(O)c(O)c2)C1O (stereo not given) | inconclusive: 37.2 µM [inhibitor, partial curve, poor fit] |
| COc1cc2nc(N3CCN(C(=O)c4ccco4)CC3)nc(N)c2cc1OC | inconclusive: 11.6 µM [inhibitor, single point] |
